To fix the notation:
B1: OR4K15 (parent)
chain: GUUAACGGUCAUAGGCCAUGGAAACUAGGAGCACCAUUUCGCUGCCAGUGAAGAAAUGAACAAAGAAAAUCUGGGCCAGGCAGGCAUCAAAAGAAAUAGUCUUGCGCUCAACCAGAAAGUCUGUAAUCAUUUUAAGGGUA

The source of these data is the RNAGym collection of RNA variant scans (doi:10.7554/elife.90254).

The source gives no read counts; variants with many changes may rest on few reads.

The variants in this series derive from B1. Kind of series: self-cleavage, relative activity (ratio to wild type); higher = more cleavage; in vitro, sequencing; the parent is a self-cleaving ribozyme.
Consider A24G A51G U100C, for which the self-cleavage was 1.47.
For the variant A24C A60G G73A A82G A91G, the self-cleavage was determined as 0.08.
The value for A23G A56G A66G U70C was 0.67.
For A23G U43G A68G A82G U87C, the self-cleavage stood at 0.9.
The value for A24C A59G A126G was 0.85.
Turning to A23G A24G U130C U131C, the self-cleavage amounted to 0.36.
As for A23G A47G A54G A96G, the figure is 0.07; as for A23G A63C A94G, 1.87.
The value for A23G A36G A92U A111G was 0.02.
The value for A23G G74A A86G A91G A95G was 0.18; that for A23G A82G A86G A110C was 0.03.
As to A23G A47G A68G A116G, the self-cleavage was 0.83.
The value for A23G A55C U57C U87C A125G U131C was 0.13; that for A23U A59G U103C A118G U124C was 0.13.
As for A23G U70C A135U, the figure is 0.24; as for A23G A86U U87C U103C A126G A134G, 0.14; as for A23G A82G A134G, 0.47.
On to A23G A27G U39C U122C, for which the self-cleavage was 0.75.
As for A23G A27U A82C A117C, the figure is 0.07; as for A23G A110U U127C, 0.37; as for A24G A36U A69G A89G U100A, 0.33.
The value for A23G A56C U57C A116C U120C was 0.03; that for A23G A24G A68G U131C was 0.84; that for A23G A91G U124C was 2.03.
The value for A23G A24U U39C U57C A94G A118U was 0.52; that for A23U A55G A63G was 1.25.
As to A23G A117G U122C U127A U130A, the self-cleavage was 1.07.
A23U A27G U38C U43C C121U U131C: the self-cleavage was found to be 0.4.
As for A23G U124C U132A, the figure is 0.72.
The value for A23G A36G U39C was 1.72; that for A23G A91U U102C A114G was 0.69.
As for A24G A30G A91U, the figure is 1.68; as for A24C U37C A55G, 1.81.
On to A23G A30U A98G, for which the self-cleavage was 0.48.
Consider A24G A30G U38C A52G A82G, for which the self-cleavage was 0.56.
Take A23G A27U A33U A82G A118G: the self-cleavage was 0.69.
The value for A24C A95G C105A was 0.05; that for A23G A64U G106C was 0.06.
As for A23G A82G C105A, the figure is 0.08; as for A23G A82G A135C, 0.13.
As for A23U A51G A95G, the figure is 1.03; as for A23G A33U A52G, 1.05.
Take A23G U57C A135U: the self-cleavage came out at 1.98.
In the case of A23G A114U A116G, the self-cleavage came to 0.02.
The value for A23G A59U A64G U102C was 1.57.
As for A24G A27U U87A, the figure is 0.59.
As for A23U A36U U43A A51G U72C, the figure is 0.36; as for A24C A27G U102C A125G, 0.27.
As to A24G A51G A82G, the self-cleavage is 0.44.
As for A23G A27G U37C A55G A114U A116G, the figure is 0; as for A23G A52G A63G A82G A91G A116G U130C, 0.1.
As to A23G A96G U102C A114G, the self-cleavage amounted to 0.67.
As for A24C U57C A64G, the figure is 1.7; as for A23G A62G A111G, 0.09.
The value for A24C A30G A59G was 1.41.
The value for A23G U57C G83A was 1.08; that for A23G U57G A67U A68G U87C was 0.63.
Regarding A23G A36U A89G, the self-cleavage is 0.82.
The value for A24G A36G A60G A86G was 1.51; that for A23G A67G A95C C112G U120C was 0.01.
The value for A24C A68U A69G U87C A92G was 0.55.
As for A24C A33G A47U U131C, the figure is 0.27.
Take A23G C32U A52G: the self-cleavage worked out at 0.56.
In the case of A23G A33G U102A, the self-cleavage amounted to 0.29.
Regarding A24G A47G A89G, the self-cleavage is 0.91.
As for A24G A33G A54G A69G U122C, the figure is 0.68.
As for A23G A33U A96G, the figure is 1.36; as for A23G G31A A64G U70C, 0.81.
In the case of A23G A62C A68G, the self-cleavage was 1.75.
The value for A23G G44A A96G was 1.28; that for A23G U49A A78G C101U U122A was 0.08; that for A23G A52G A111G was 0.05.
For the variant A23G U26A U127A, the self-cleavage was 1.09.
Take A23G U39C A62U A68G U70C U131C: the self-cleavage came out at 1.27.
The value for A24C A30G U43C U72C U131C was 0.24; that for A23G A86G U132C was 1.32; that for A23G U43A C61U A111U was 0.17.
With A23G G83A U130C U132C, the self-cleavage was 2.
The value for A24C A62G A92U was 2.13; that for A23G A36G A51G U87C was 0.53; that for A23G G53A A91U was 1.49.
Take A23G U72C U120C A135U: the self-cleavage amounted to 0.13.
The value for A23G A68G A69G A118U was 0.58.
